Assay results published in the supplement of paper PMC4967469.
Lines with a small IC50 respond at low doses; a limit (>, <) means that the fit lies beyond the doses tested. AUC is the area under the same curve over the 256-fold range up to the top dose, as a fraction; the more sensitive the line, the further below 1. For part of these data: The top dose, if marked as inferred, is not printed in the source and was worked back from the curve model.

What was measured:
Experiment in all cases: Viability of human cancer cell lines after 72 h of drug (GDSC screen)
XMD15-27 = compound: C=CC(=O)Nc1ccc(C(=O)c2sc(Nc3ccc(N4CCN(C)CC4)cc3OC)nc2N)cc1 [XMD15-27]; settings: top dose 10.24 µM; top dose inferred
Experimental: (§1)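 Human cancer cell lines in 384-well plates, medium with 10% serum, drug for 72 h over a 256-fold dose range (nine 2-fold or five 4-fold steps up to the top dose). Adherent lines were fixed and stained with the nucleic acid dye Syto60, suspension lines read with resazurin; signal relative to control wells, capped at 0 and 100%. One two-parameter sigmoid per drug and line, fitted in a mixed model over all curves with the slope shared within a line.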

SL 0101-1 = compound: CC(=O)O[C@@H]1[C@@H](OC(C)=O)[C@@H](O)[C@H](Oc2c(-c3ccc(O)cc3)oc3cc(O)cc(O)c3c2=O)O[C@H]1C [SL 0101-1]; settings: top dose 10 µM; top dose inferred
Experimental: as §1

Temsirolimus = compound: CO[C@H]1C[C@@H]2CC[C@@H](C)[C@@](O)(O2)C(=O)C(=O)N2CCCC[C@H]2C(=O)O[C@H]([C@H](C)C[C@@H]2CC[C@@H](OC(=O)C(C)(CO)CO)[C@H](OC)C2)CC(=O)[C@H](C)/C=C(\C)[C@@H](O)[C@@H](OC)C(=O)[C@H](C)C[C@H](C)/C=C/C=C/C=C/1C [Temsirolimus]; settings: top dose 0.2 µM
Experimental: as §1

Cell Line	AUC (XMD15-27)	IC50 (XMD15-27) [µM]	AUC (SL 0101-1)	IC50 (SL 0101-1) [µM]	AUC (Temsirolimus)	IC50 (Temsirolimus) [µM]
NCI-H661 (large cell lung carcinoma, adherent)	0.978	> 10.2	0.943	> 10	0.765	0.088
NCI-H720 (lung carcinoid, suspension)	0.992	> 10.2	0.992	> 10	0.866	0.154
NCI-H727 (lung carcinoid, adherent)	0.974	> 10.2	0.905	> 10	0.845	> 0.2
NCI-H747 (large intestine, adherent)	0.957	> 10.2	0.981	> 10	0.913	> 0.2
NCI-H810 (large cell lung carcinoma, adherent)	0.981	> 10.2	0.983	> 10	0.919	> 0.2
NCI-H838 (lung adenocarcinoma, adherent)	0.987	> 10.2	0.987	> 10	0.594	0.0228
NCI-H841 (small cell lung carcinoma, adherent)	0.982	> 10.2	0.988	> 10	0.605	0.0243
NCI-H847 (small cell lung carcinoma, adherent)	0.98	> 10.2	0.993	> 10	0.989	> 0.2
NCI-H1048 (small cell lung carcinoma, adherent)	0.985	> 10.2	0.983	> 10	0.915	> 0.2
NCI-H1092 (small cell lung carcinoma, suspension)	0.99	> 10.2	0.99	> 10	0.98	> 0.2
NCI-H1155 (large cell lung carcinoma, suspension)	0.993	> 10.2	0.989	> 10	0.8	0.0772
NCI-H1304 (small cell lung carcinoma, suspension)	0.988	> 10.2	0.964	> 10	0.956	> 0.2
NCI-H1395 (lung adenocarcinoma, adherent)	0.982	> 10.2	0.969	> 10	0.927	> 0.2
NCI-H1417 (small cell lung carcinoma, suspension)	0.941	> 10.2	0.968	> 10	0.803	0.122
NCI-H1435 (lung adenocarcinoma, semi-adherent)	0.993	> 10.2	0.992	> 10	0.977	> 0.2
NCI-H1436 (small cell lung carcinoma, suspension)	0.986	> 10.2	0.97	> 10	0.975	> 0.2
NCI-H1437 (lung adenocarcinoma, adherent)	0.962	> 10.2	0.985	> 10	0.649	0.0328

Cell Line	AUC (XMD15-27)	IC50 (XMD15-27) [µM]	AUC (SL 0101-1)	IC50 (SL 0101-1) [µM]	AUC (Temsirolimus)	IC50 (Temsirolimus) [µM]
NCI-H1563 (lung adenocarcinoma, adherent)	0.955	> 10.2	0.985	> 10	0.722	0.0608
NCI-H1568 (lung adenocarcinoma, adherent)	0.977	> 10.2	0.969	> 10	0.851	> 0.2
NCI-H1623 (lung adenocarcinoma, adherent)	0.985	> 10.2	0.985	> 10	0.872	> 0.2
NCI-H1648 (lung adenocarcinoma, adherent)	0.978	> 10.2	0.929	> 10	0.859	0.183
NCI-H1651 (lung adenocarcinoma, adherent)	0.987	> 10.2	0.973	> 10	0.91	> 0.2
NCI-H1688 (small cell lung carcinoma, adherent)	0.979	> 10.2	0.986	> 10	0.828	0.14
NCI-H1693 (lung adenocarcinoma, adherent)	0.972	> 10.2	0.957	> 10	0.674	0.0515
NCI-H1694 (small cell lung carcinoma, suspension)	0.978	> 10.2	0.978	> 10	0.911	> 0.2
NCI-H1703 (lung adenocarcinoma, adherent)	0.954	> 10.2	0.982	> 10	0.626	0.03
NCI-H1755 (lung adenocarcinoma, adherent)	0.984	> 10.2	0.981	> 10	0.888	> 0.2
NCI-H1770 (non-small cell lung carcinoma, suspension)	0.992	> 10.2	0.992	> 10	0.978	> 0.2
NCI-H1781 (lung adenocarcinoma, adherent)	0.989	> 10.2	0.989	> 10	0.906	> 0.2
NCI-H1792 (lung adenocarcinoma, adherent)	0.981	> 10.2	0.987	> 10	0.88	0.172
NCI-H1836 (small cell lung carcinoma, suspension)	0.988	> 10.2	0.988	> 10	0.979	> 0.2
NCI-H1838 (lung adenocarcinoma, adherent)	0.984	> 10.2	0.963	> 10	0.896	> 0.2
NCI-H1869 (lung squamous cell carcinoma, adherent)	0.983	> 10.2	0.982	> 10	0.803	0.114
